Measurements reported in the supplement of paper PMC4967469.

What was measured:
Assay in all cases: Viability of human cancer cell lines after 72 h of drug (GDSC screen)
QL-XII-47 = compound: C=CC(=O)N1CCc2ccc(-n3c(=O)ccc4cnc5ccc(-c6cnn(C)c6)cc5c43)cc21 [QL-XII-47]; settings: top dose 10.24 µM; top dose inferred
Experimental: (§1)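 Human cancer cell lines in 384-well plates, medium with 10% serum, drug for 72 h over a 256-fold dose range (nine 2-fold or five 4-fold steps up to the top dose). Adherent lines were fixed and stained with the nucleic acid dye Syto60, suspension lines read with resazurin; signal relative to control wells, capped at 0 and 100%. One two-parameter sigmoid per drug and line, fitted in a mixed model over all curves with the slope shared within a line.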

KIN001-266 = compound: CCN1CCC(n2cc(CNc3cc(Cl)c4ncc(C#N)c(Nc5ccc(F)c(Cl)c5)c4c3)nn2)CC1 [KIN001-266]; settings: top dose 20 µM; top dose inferred
Experimental: as §1

BAY 61-3606 = compound: COc1ccc(-c2cc3nccn3c(Nc3ncccc3C(N)=O)n2)cc1OC [BAY 61-3606]; settings: top dose 8 µM; top dose inferred
Experimental: as §1

CCT007093 = compound: O=C1/C(=C/c2cccs2)CC/C1=C\c1cccs1 [CCT007093]; settings: top dose 6.6 µM; top dose inferred
Experimental: as §1

Cell Line	AUC (QL-XII-47)	IC50 (QL-XII-47)	AUC (KIN001-266)	IC50 (KIN001-266)	AUC (BAY 61-3606)	IC50 (BAY 61-3606)	AUC (CCT007093)	IC50 (CCT007093)
SNU-449 (liver, adherent)	0.681	2.16 µM	0.868	> 20 µM	0.789	3.91 µM	0.976	> 6.6 µM
SNU-C1 (large intestine, suspension)	0.783	6.67 µM	0.941	> 20 µM	0.978	> 8 µM	0.924	> 6.6 µM
SR (lymphoid neoplasm, suspension)	0.375	0.301 µM	0.773	7.01 µM	0.519	0.559 µM	0.952	> 6.6 µM
ST486 (Burkitt lymphoma, suspension)	0.456	0.492 µM	0.545	1.63 µM	0.535	0.615 µM	0.982	> 6.6 µM
SU8686 (pancreas, adherent)	0.749	3.68 µM	0.902	> 20 µM	0.951	> 8 µM	0.978	> 6.6 µM
SU-DHL-4 (B-cell lymphoma, suspension)	0.684	1.78 µM	0.916	14.3 µM	0.804	2.76 µM	0.995	> 6.6 µM
SU-DHL-5 (B-cell lymphoma, suspension)	0.447	0.475 µM	0.901	14.4 µM	0.41	0.302 µM	0.988	> 6.6 µM
SU-DHL-6 (B-cell lymphoma, suspension)	0.409	0.384 µM	0.905	14.4 µM	0.512	0.535 µM	0.995	> 6.6 µM
SUIT-2 (pancreas, adherent)	0.805	5.46 µM	0.763	7.53 µM	0.881	> 8 µM	0.981	> 6.6 µM
SUP-B15 (lymphoblastic leukaemia, suspension)	0.405	0.356 µM	0.841	13.1 µM	0.641	1.21 µM	0.985	> 6.6 µM
SUP-HD1 (Hodgkin lymphoma, suspension)	0.545	0.845 µM	0.784	8.08 µM	0.635	1.15 µM	0.983	> 6.6 µM
SUP-M2 (anaplastic large cell lymphoma, suspension)	0.37	0.307 µM	0.899	14.6 µM	0.705	1.6 µM	0.99	> 6.6 µM
SUP-T1 (T-cell lymphoblastic leukaemia, suspension)	0.592	1.11 µM	0.873	16.3 µM	0.746	2.35 µM	0.99	> 6.6 µM
SW13 (adrenal gland, adherent)	0.988	> 10.2 µM	0.955	> 20 µM	0.958	> 8 µM	0.982	> 6.6 µM
SW48 (large intestine, adherent)	0.924	> 10.2 µM	0.873	19.1 µM	0.834	5.17 µM	0.986	> 6.6 µM
SW156 (kidney, adherent)	0.738	3.34 µM	0.874	> 20 µM	0.927	> 8 µM	0.977	> 6.6 µM

Cell Line	AUC (QL-XII-47)	IC50 (QL-XII-47)	AUC (KIN001-266)	IC50 (KIN001-266)	AUC (BAY 61-3606)	IC50 (BAY 61-3606)	AUC (CCT007093)	IC50 (CCT007093)
SW620 (large intestine, adherent)	0.5	0.641 µM	0.877	16.1 µM	0.798	–	0.988	> 6.6 µM
SW626 (ovary, adherent)	0.39	0.301 µM	0.817	13.9 µM	0.954	> 8 µM	0.984	> 6.6 µM
SW684 (fibrosarcoma, adherent)	0.972	> 10.2 µM	0.977	> 20 µM	0.976	> 8 µM	0.958	> 6.6 µM
SW780 (bladder, adherent)	0.986	> 10.2 µM	0.986	> 20 µM	0.983	> 8 µM	0.971	> 6.6 µM
SW837 (large intestine, adherent)	0.829	9.41 µM	0.895	> 20 µM	0.765	3.88 µM	0.983	> 6.6 µM
SW872 (soft tissue, adherent)	0.737	2.81 µM	0.884	18 µM	0.644	1.2 µM	0.984	> 6.6 µM
SW900 (lung squamous cell carcinoma, adherent)	0.863	> 10.2 µM	0.938	> 20 µM	0.973	> 8 µM	0.982	> 6.6 µM
SW948 (large intestine, adherent)	0.893	> 10.2 µM	0.837	> 20 µM	0.917	> 8 µM	0.982	> 6.6 µM
SW954 (urogenital system, adherent)	0.626	1.43 µM	0.825	12.2 µM	0.948	> 8 µM	0.982	> 6.6 µM
SW962 (urogenital system, adherent)	0.782	5.43 µM	0.876	> 20 µM	0.898	> 8 µM	0.976	> 6.6 µM
SW982 (soft tissue, adherent)	0.984	> 10.2 µM	0.873	> 20 µM	0.586	0.867 µM	0.978	> 6.6 µM
SW1088 (glioma, adherent)	0.901	> 10.2 µM	0.949	> 20 µM	0.982	> 8 µM	0.981	> 6.6 µM
SW1271 (small cell lung carcinoma, adherent)	0.581	1.11 µM	0.779	9.48 µM	0.759	3.21 µM	0.984	> 6.6 µM
SW1417 (large intestine, adherent)	0.979	> 10.2 µM	0.952	> 20 µM	0.986	> 8 µM	0.979	> 6.6 µM
SW1463 (large intestine, adherent)	0.652	2.29 µM	0.977	> 20 µM	0.962	> 8 µM	0.957	> 6.6 µM

By IC50 is meant the dose at which the fit gives 50% viability; a fit beyond the top or the lowest dose is shown as a bound at that dose. For AUC the same curve is integrated over the 256-fold range of doses and scaled to a fraction: 1 means no effect, lower means more sensitive. An inferred top dose comes from the curve model; the source does not state it.
